Laboratory results reported in PMC2174347 (The Journal of Cell Biology, 2000).

Biological target: wild-type ezrin 1-586 (UniProt P15311 1-586)
Assay: solid phase assay

Chain of UniProt P15311 (P15311 whole entry): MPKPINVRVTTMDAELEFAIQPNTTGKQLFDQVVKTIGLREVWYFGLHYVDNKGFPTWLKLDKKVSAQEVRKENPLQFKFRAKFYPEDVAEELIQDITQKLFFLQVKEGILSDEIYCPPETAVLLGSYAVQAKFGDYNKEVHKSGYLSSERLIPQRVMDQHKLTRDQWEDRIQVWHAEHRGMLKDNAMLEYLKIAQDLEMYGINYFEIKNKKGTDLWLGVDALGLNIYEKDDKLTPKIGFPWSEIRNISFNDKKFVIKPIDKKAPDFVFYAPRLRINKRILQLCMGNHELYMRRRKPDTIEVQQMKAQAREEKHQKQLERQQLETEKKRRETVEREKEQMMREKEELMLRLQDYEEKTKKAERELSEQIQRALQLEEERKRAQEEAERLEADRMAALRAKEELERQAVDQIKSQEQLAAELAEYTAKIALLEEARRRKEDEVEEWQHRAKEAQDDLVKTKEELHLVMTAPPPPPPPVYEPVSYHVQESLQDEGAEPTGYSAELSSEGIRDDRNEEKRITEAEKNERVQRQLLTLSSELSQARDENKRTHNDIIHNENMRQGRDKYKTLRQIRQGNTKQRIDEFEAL

- binding result: binds
B1: wild-type ezrin […] (domain or fragment)
chain: not shown
